Measurements taken from the antibiotic and cytotoxicity screens of Wong et al. (2023).
The other results are listed elsewhere or left out.

Each compound was assayed on HepG2 (assay: cytotoxicity call (relative viability < 0.9)). Details: 10 µM.

**Q.** Which cytotoxicity call does the source give for `c1ccc2c(c1)[nH]c1ncccc12` here?
**A.** inactive

**Q.** For `Cc1ccccc1CCCCN`, which cytotoxicity call is on record?
**A.** inactive

**Q.** How did the cytotoxicity call turn out when `Cc1noc(C)c1S(=O)(=O)Nc1ccc2c(c1)CC(=O)N([C@@H](C)CO)C[C@H](C)[C@@H](CN(C)S(=O)(=O)c1cccs1)O2` was run?
**A.** inactive

**Q.** With `C[C@@H]1CCCCO[C@@H](CN(C)Cc2ccc(C(F)(F)F)cc2)[C@@H](C)CN([C@H](C)CO)C(=O)c2cc(NC(=O)CCC(F)(F)F)ccc2O1` as the compound, how does the cytotoxicity call read?
**A.** inactive

**Q.** For `COc1ccc(NC(=O)Nc2ccc3c(c2)CC(=O)N([C@@H](C)CO)C[C@@H](C)[C@@H](CN(C)Cc2ccc(Oc4ccccc4)cc2)O3)cc1`, which cytotoxicity call is on record?
**A.** active

**Q.** How did the cytotoxicity call turn out when `O=C(O)[C@H]1/C(=C/CO)O[C@@H]2CC(=O)N21` was run?
**A.** inactive

**Q.** How did the cytotoxicity call turn out when `C[C@H](CO)N1C[C@H](C)[C@@H](CN(C)C(=O)Nc2ccccc2)Oc2ccc(NC(=O)CCN3CCOCC3)cc2C1=O` was run?
**A.** inactive

**Q.** How did the cytotoxicity call turn out when `Cn1cnc(S(=O)(=O)N[C@@H]2CC[C@H](CC(=O)Nc3ccccc3)O[C@@H]2CO)c1` was run?
**A.** inactive

**Q.** `COc1ccc(S(=O)(=O)N(C)C[C@H]2Oc3ccc(NC(=O)Nc4c(C)noc4C)cc3CC(=O)N([C@@H](C)CO)C[C@H]2C)cc1` was tested. Which cytotoxicity call did it give?
**A.** inactive

**Q.** With `Cc1ccc(S(=O)(=O)Nc2ccc3c(c2)CC(=O)N([C@H](C)CO)C[C@@H](C)[C@@H](CN(C)CC2CC2)O3)cc1` as the compound, how does the cytotoxicity call read?
**A.** inactive

**Q.** For `CN1C(=O)c2cc(NC(=O)c3ccc(F)cc3)ccc2OC[C@H]2O[C@H](CC(=O)N3CCOCC3)CC[C@@H]21`, which cytotoxicity call is on record?
**A.** inactive

**Q.** Which cytotoxicity call does the source give for `C[C@@H]1CCCCO[C@H](CN(C)C(=O)NC2CCCCC2)[C@@H](C)CN([C@H](C)CO)C(=O)c2cc(NC(=O)Nc3ccc(C(F)(F)F)cc3)ccc2O1` here?
**A.** inactive

**Q.** For `Fc1ccc(-c2n[nH]c(=S)o2)cc1`, which cytotoxicity call is on record?
**A.** inactive

**Q.** Which cytotoxicity call does the source give for `COc1ccc([C@H]([C@@H](O)Cc2ccccc2)N(CC#C[C@@H](O)c2ccccc2)[C@@H](Cc2ccccc2)C(OC)OC)cc1` here?
**A.** inactive

**Q.** Which cytotoxicity call does the source give for `Nc1ncnc2c1ncn2[C@H]1O[C@@H](C(=O)N2CCN(CC(=O)Nc3cccc4c3CNC4=O)CC2)[C@H](O)[C@@H]1O` here?
**A.** inactive

**Q.** `Cc1noc(C)c1NC(=O)N(C)C[C@@H]1Oc2ccc(NS(=O)(=O)c3ccccc3)cc2C(=O)N([C@H](C)CO)C[C@@H]1C` was tested. Which cytotoxicity call did it give?
**A.** inactive

**Q.** With `CN(C)c1ccc(C(=C2C=CC(=[N+](C)C)C=C2)c2ccc(N(C)C)cc2)cc1.[Cl-]` as the compound, how does the cytotoxicity call read?
**A.** active

**Q.** For `NC(C(=O)O)C(O)C(O)C(O)CO` (stereo not given), which cytotoxicity call is on record?
**A.** inactive

**Q.** Which cytotoxicity call does the source give for `C[C@H]1CN([C@@H](C)CO)C(=O)c2cc(NS(=O)(=O)c3ccccc3)ccc2O[C@H]1CN(C)Cc1ccncc1` here?
**A.** inactive

**Q.** For `Cc1ccc(S(=O)(=O)N2C[C@@H](O)COC[C@@H]3O[C@H](CC(=O)NCCCN(C)C)CC[C@H]32)cc1`, which cytotoxicity call is on record?
**A.** inactive

**Q.** For `C[C@H]1CN([C@@H](C)CO)C(=O)c2cc(NC(=O)Nc3ccccc3)ccc2O[C@@H]1CN(C)Cc1ccc(C(F)(F)F)cc1`, which cytotoxicity call is on record?
**A.** active

**Q.** `C[C@H]1CN([C@@H](C)CO)C(=O)c2cccc(NC(=O)C3CCOCC3)c2O[C@H]1CN(C)C(=O)Nc1ccc2c(c1)OCO2` was tested. Which cytotoxicity call did it give?
**A.** inactive

**Q.** `CCNC(=S)N1CCCC[C@@H]1CO` was tested. Which cytotoxicity call did it give?
**A.** inactive

**Q.** For `CCCC#Cc1ccc2c(c1)O[C@@H](CN(C)Cc1ccc3c(c1)OCO3)[C@@H](C)CN([C@@H](C)CO)S2(=O)=O`, which cytotoxicity call is on record?
**A.** inactive

**Q.** How did the cytotoxicity call turn out when `C[C@@H]1CCCCO[C@H](CN(C)S(C)(=O)=O)[C@@H](C)CN([C@@H](C)CO)C(=O)c2cc(NS(=O)(=O)c3cn(C)cn3)ccc2O1` was run?
**A.** inactive

**Q.** With `CC12CCC(=O)C=C1CCC1C2C(O)CC2(C)C1CCC2(O)C(=O)COP(=O)([O-])[O-].CC[NH+](CC)CC.CC[NH+](CC)CC` (stereo not given) as the compound, how does the cytotoxicity call read?
**A.** inactive

**Q.** For `O=C(CCCCCCC(=O)Nc1ccccc1O)N/N=C/[C@H](O)[C@@H](O)[C@H](O[C@@H]1O[C@H](CO)[C@H](O)[C@H](O)[C@H]1O)[C@H](O)CO`, which cytotoxicity call is on record?
**A.** inactive

**Q.** For `COc1ccc(S(=O)(=O)N(C)C[C@@H]2Oc3cc(C#CC4CCCC4)ccc3S(=O)(=O)N([C@H](C)CO)C[C@@H]2C)cc1`, which cytotoxicity call is on record?
**A.** inactive

**Q.** With `C[C@H](CO)N1C[C@H](C)[C@@H](CN(C)Cc2ccc(C(F)(F)F)cc2)Oc2ccc(NS(=O)(=O)c3ccc(Cl)cc3)cc2C1=O` as the compound, how does the cytotoxicity call read?
**A.** active

**Q.** Which cytotoxicity call does the source give for `C[C@@H]1CCCCO[C@H](CN(C)C(=O)Nc2ccc(F)cc2)[C@H](C)CN([C@@H](C)CO)C(=O)c2cc(NC(=O)Nc3ccccc3)ccc2O1` here?
**A.** inactive

**Q.** How did the cytotoxicity call turn out when `CS(=O)(=O)Nc1ccc2c(c1)[C@@H]1C[C@H](CC(=O)NCc3ccc(-c4ccccc4)cc3)O[C@H](CO)[C@@H]1O2` was run?
**A.** inactive

**Q.** Which cytotoxicity call does the source give for `C[C@@H]1CCCCO[C@H](CN(C)C(=O)C2CCCCC2)[C@H](C)CN([C@@H](C)CO)C(=O)c2cc(NC(=O)Nc3cccc4ccccc34)ccc2O1` here?
**A.** inactive

**Q.** With `Nc1cc(=O)nc2[nH][nH]c(=S)n12` as the compound, how does the cytotoxicity call read?
**A.** inactive

**Q.** With `C[C@@H]1CN([C@H](C)CO)C(=O)CCCn2nncc2CO[C@@H]1CN(C)C(=O)Nc1ccc2c(c1)OCCO2` as the compound, how does the cytotoxicity call read?
**A.** inactive

**Q.** How did the cytotoxicity call turn out when `C[C@@H]1CCCCO[C@H](CN(C)C(=O)C2CCCCC2)[C@@H](C)CN([C@@H](C)CO)C(=O)c2cc(NC(=O)Nc3ccc(C(F)(F)F)cc3)ccc2O1` was run?
**A.** inactive

**Q.** Which cytotoxicity call does the source give for `COC1(NC(=O)Cc2cccs2)C(=O)N2C(C(=O)[O-])=C(COC(N)=O)CSC21.[Na+]` (stereo not given) here?
**A.** inactive

**Q.** With `Cc1noc(C)c1S(=O)(=O)Nc1ccc2c(c1)C(=O)N([C@@H](C)CO)C[C@H](C)[C@H](CN(C)S(C)(=O)=O)OCCCC[C@@H](C)O2` as the compound, how does the cytotoxicity call read?
**A.** inactive

**Q.** Which cytotoxicity call does the source give for `Cc1noc(C)c1S(=O)(=O)Nc1ccc2c(c1)C(=O)N([C@H](C)CO)C[C@H](C)[C@H](CN(C)C(=O)Nc1ccc(C(F)(F)F)cc1)OCCCC[C@@H](C)O2` here?
**A.** inactive

**Q.** `[N-]=[N+]=N[C@]1(CO)O[C@@H](n2ccc(N)nc2=O)[C@H](O)[C@@H]1O` was tested. Which cytotoxicity call did it give?
**A.** inactive

**Q.** For `C[C@@H]1CN([C@@H](C)CO)S(=O)(=O)c2ccc(C#C[C@@H](C)O)cc2O[C@@H]1CN(C)C(=O)Cc1ccccn1`, which cytotoxicity call is on record?
**A.** inactive
